# The list shows a part of the results. Most values come without repeats; read them as rough.
# Assays:
# Experiment in all cases: cell count relative to DMSO control; melanoma cells; higher = more viable cells
# Settings in all cases: library dose: standard library concentration; 72 h
# [1] = test system: SkMel28
# [2] = test system: SkMel2
# [3] = test system: SkMel30
# [4] = test system: SkMel5
# [5] = test system: UACC257
# [6] = test system: UACC62
# [7] = test system: WM115
# [8] = test system: WM1716
# [9] = test system: WM1745
# [10] = test system: WM3526
# 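Further: cells treated in 1,536-well plates, then fixed and DAPI-stained, with nuclei counted from automated high-throughput microscope images.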
Compound,cell count [1] [%],cell count [2] [%],cell count [3] [%],cell count [4] [%],cell count [5] [%],cell count [6] [%],cell count [7] [%],cell count [8] [%],cell count [9] [%],cell count [10] [%]
"O=C(Nc1cc(C(F)(F)F)cc(C(F)(F)F)c1)c1cc(Cl)ccc1O + Cn1cncc1[C@@](N)(c1ccc(Cl)cc1)c1ccc2c(c1)c(-c1cccc(Cl)c1)cc(=O)n2C [tipifarnib] (first compound 0.08 µM, partner dose 0.05 µM)",54.9,68.6,107,57.2,77.9,74.9,67.5,69.7,80.7,71.4
"O=C(Nc1cc(C(F)(F)F)cc(C(F)(F)F)c1)c1cc(Cl)ccc1O + CN(c1ncccc1CNc1nc(Nc2ccc3c(c2)CC(=O)N3)ncc1C(F)(F)F)S(C)(=O)=O [PF562271] (first compound 0.08 µM, partner dose 0.4 µM)",92.7,79.8,91.4,78.9,80.8,64.7,100,82.7,70.3,96.8
"O=C(O)[C@@H]1[O][Sb](=[O])([O][Sb]2(=[O])[O][C@H]([C@H](O)CO)[C@H](O)[C@H](C(=O)O)[O]2)[O][C@H]([C@H](O)CO)[C@@H]1O (stereo not given in full) [stibogluconate] + OCc1c[nH]c2ccccc12 [Indole-3-carbinol] (first compound 10 µM, partner dose 4 µM)",81.4,98,80.3,76.3,99.1,79.6,76.1,74.7,95.9,86.2
"O=C(O)[C@@H]1[O][Sb](=[O])([O][Sb]2(=[O])[O][C@H]([C@H](O)CO)[C@H](O)[C@H](C(=O)O)[O]2)[O][C@H]([C@H](O)CO)[C@@H]1O (stereo not given in full) [stibogluconate] + CN(NC(=O)CC(=O)NN(C)C(=S)c1ccccc1)C(=S)c1ccccc1 [STA4783] (first compound 10 µM, partner dose 0.03 µM)",52,71.5,93.3,43.8,94.4,32.9,26.5,101,27.3,80.5
"O=C(Nc1cc(C(F)(F)F)cc(C(F)(F)F)c1)c1cc(Cl)ccc1O + C=C(c1ccc(C(=O)O)cc1)c1cc2c(cc1C)C(C)(C)CCC2(C)C [Bexarotene] (first compound 0.08 µM, partner dose 10 µM)",66.5,85.3,102,79.1,86.1,87.8,85.3,87.7,66.5,84.1
"Cn1nnc2c(C(N)=O)ncn2c1=O [temozolomide] + CO[C@@H]1[C@H](N(C)C(=O)c2ccccc2)C[C@H]2O[C@]1(C)n1c3ccccc3c3c4c(c5c6ccccc6n2c5c31)C(=O)NC4 [Midostaurin] (first compound 10 µM, partner dose 0.4 µM)",39.2,39.6,47.5,47.1,62.2,44.2,44.5,40.1,32,74.6
"Cc1cc(N2CCOCC2)cc2[nH]c(-c3c(NC[C@@H](O)c4cccc(Cl)c4)cc[nH]c3=O)nc12 + CCN(CC)CCCCNc1ncc2cc(-c3cc(OC)cc(OC)c3)c(NC(=O)NC(C)(C)C)nc2n1 [PD173074] (first compound 1 µM, partner dose 0.5 µM)",92,77.2,83.7,70,98.1,97.2,92.7,111,50.8,75
"O=C(O)c1ccc2c(c1)nc(Nc1cccc(Cl)c1)c1ccncc12 + OCc1c[nH]c2ccccc12 [Indole-3-carbinol] (first compound 2 µM, partner dose 4 µM)",79.1,90.5,70.5,94.5,124,86.1,95.9,117,77.4,78.2
"O=C(O)c1ccc2c(c1)nc(Nc1cccc(Cl)c1)c1ccncc12 + Nc1ncn([C@H]2C[C@H](O)[C@@H](CO)O2)c(=O)n1 [decitabine] (first compound 2 µM, partner dose 0.5 µM)",53.3,66.9,60.6,52.4,87.7,74.9,68.7,68.6,67.3,68.6
"Cc1cc(N2CCOCC2)cc2[nH]c(-c3c(NC[C@@H](O)c4cccc(Cl)c4)cc[nH]c3=O)nc12 + Cn1cc(/C=C2\C(=O)Nc3cccnc32)c2ccccc21 [GW441756] (first compound 1 µM, partner dose 2 µM)",70.4,84,85.8,60.4,79.3,97.1,76.8,101,59.6,66
"O=C(O)c1ccc2c(c1)nc(Nc1cccc(Cl)c1)c1ccncc12 + CO[C@@H]1[C@H](N(C)C(=O)c2ccccc2)C[C@H]2O[C@]1(C)n1c3ccccc3c3c4c(c5c6ccccc6n2c5c31)C(=O)NC4 [Midostaurin] (first compound 2 µM, partner dose 0.4 µM)",42.5,35.9,74.4,44.6,49.9,67.6,46.4,40.7,22.9,47
"O=C(Nc1cc(C(F)(F)F)cc(C(F)(F)F)c1)c1cc(Cl)ccc1O + NCC(=O)Nc1ccc(-n2nc(C(F)(F)F)cc2-c2ccc3c(ccc4ccccc43)c2)cc1 [OSU03012] (first compound 0.08 µM, partner dose 5 µM)",23.5,32.3,39,49.3,75.1,64.9,69.2,77.7,81.5,49.2
"Cc1cc(N2CCOCC2)cc2[nH]c(-c3c(NC[C@@H](O)c4cccc(Cl)c4)cc[nH]c3=O)nc12 + CC(C)CCN1c2nc(Nc3cc(F)c(O)c(F)c3)ncc2N(C)C(=O)C1C [BID1870] (first compound 1 µM, partner dose 1 µM)",50.8,66.5,75.2,58.3,98.9,80.8,105,97.9,48.3,59.7
"Cn1nnc2c(C(N)=O)ncn2c1=O [temozolomide] + Cn1cc(/C=C2\C(=O)Nc3cccnc32)c2ccccc21 [GW441756] (first compound 10 µM, partner dose 2 µM)",33.4,102,72.5,79.8,77.9,62.6,80.1,54.8,80.8,102
"O=C(O)[C@@H]1[O][Sb](=[O])([O][Sb]2(=[O])[O][C@H]([C@H](O)CO)[C@H](O)[C@H](C(=O)O)[O]2)[O][C@H]([C@H](O)CO)[C@@H]1O (stereo not given in full) [stibogluconate] + Cn1c(Nc2ccc(C(F)(F)F)cc2)nc2cc(Oc3ccnc(-c4ncc(C(F)(F)F)[nH]4)c3)ccc21 [CHIR265] (first compound 10 µM, partner dose 0.4 µM)",23.9,65.3,68.4,38.5,86.7,43.3,20.5,68.7,62.3,43.7
"O=C(O)[C@@H]1[O][Sb](=[O])([O][Sb]2(=[O])[O][C@H]([C@H](O)CO)[C@H](O)[C@H](C(=O)O)[O]2)[O][C@H]([C@H](O)CO)[C@@H]1O (stereo not given in full) [stibogluconate] + NC(=O)Nc1cc(-c2cccc(F)c2)sc1C(=O)N[C@H]1CCCNC1 [AZD7762] (first compound 10 µM, partner dose 0.1 µM)",52.8,74.2,81.1,72,117,80.3,67.5,65.5,59.5,40.5
"O=C(Nc1cc(C(F)(F)F)cc(C(F)(F)F)c1)c1cc(Cl)ccc1O + CC1(C)NC(=O)N(c2ccc([N+](=O)[O-])c(C(F)(F)F)c2)C1=O [nilutamide] (first compound 0.08 µM, partner dose 5 µM)",60.7,87.6,92.6,71.9,83.9,82.2,72.4,88.3,89.2,80.3
"O=C(O)c1ccc2c(c1)nc(Nc1cccc(Cl)c1)c1ccncc12 + C[C@@H]1CCN(C(=O)CC#N)C[C@@H]1N(C)c1ncnc2[nH]ccc12 [CP690550] (first compound 2 µM, partner dose 5 µM)",90.9,70.9,77.4,92.6,101,98.4,157,127,75.6,80.8
"O=C(Nc1ccccc1)c1cc([N+](=O)[O-])ccc1Cl + N#Cc1c(O)c2c(-c3ccc(-c4ccccc4O)cc3)csc2[nH]c1=O [A769662] (first compound 10 µM, partner dose 10 µM)",72.1,103,111,120,84.8,92.9,76.8,99.7,72.2,91.3
"O=C(O)c1ccc2c(c1)nc(Nc1cccc(Cl)c1)c1ccncc12 + Cc1cc(N2CCOCC2)cc2[nH]c(-c3c(NC[C@@H](O)c4cccc(Cl)c4)cc[nH]c3=O)nc12 [BMS536924] (first compound 2 µM, partner dose 1 µM)",59.7,66.8,60.4,82.2,100,104,111,94.2,61.3,48.3
"Cn1nnc2c(C(N)=O)ncn2c1=O [temozolomide] + CCCCCCCCCCCC1=C(O)C(=O)C=C(O)C1=O [Embelin] (first compound 10 µM, partner dose 6 µM)",37.4,91.8,73.9,74.7,102,69.1,85.1,56,71.2,82.5
"Cc1cc(N2CCOCC2)cc2[nH]c(-c3c(NC[C@@H](O)c4cccc(Cl)c4)cc[nH]c3=O)nc12 + c1cc(-c2cnn3cc(-c4ccc(OCCN5CCCCC5)cc4)cnc23)ccn1 [Dorsomorphin] (first compound 1 µM, partner dose 2 µM)",59.5,61.6,62.2,44.8,74.3,86.4,69.2,77.6,32,61.5

# Source: the supplement of paper PMC4604168 (melanoma cell lines)
